Assay results reported in publication PMC4336329 (PLoS ONE, 2015).
The whole screen tested about 310,000 compounds, of which about 14,000 (4.5%) showed an effect of 50% or more. The effect is printed as a negative number. This is one part of the list.

Each compound was assayed against human ether-à-go-go-related gene (hERG) potassium channel (human, UniProt Q12809) (assay: primary screen, population patch clamp on CHO cells stably expressing hERG).
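Further: peak tail current of the secondary pulse compared with the same well before compound.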

human ether-à-go-go-related gene (hERG) potassium channel, sequence (Q12809 whole entry, looked up): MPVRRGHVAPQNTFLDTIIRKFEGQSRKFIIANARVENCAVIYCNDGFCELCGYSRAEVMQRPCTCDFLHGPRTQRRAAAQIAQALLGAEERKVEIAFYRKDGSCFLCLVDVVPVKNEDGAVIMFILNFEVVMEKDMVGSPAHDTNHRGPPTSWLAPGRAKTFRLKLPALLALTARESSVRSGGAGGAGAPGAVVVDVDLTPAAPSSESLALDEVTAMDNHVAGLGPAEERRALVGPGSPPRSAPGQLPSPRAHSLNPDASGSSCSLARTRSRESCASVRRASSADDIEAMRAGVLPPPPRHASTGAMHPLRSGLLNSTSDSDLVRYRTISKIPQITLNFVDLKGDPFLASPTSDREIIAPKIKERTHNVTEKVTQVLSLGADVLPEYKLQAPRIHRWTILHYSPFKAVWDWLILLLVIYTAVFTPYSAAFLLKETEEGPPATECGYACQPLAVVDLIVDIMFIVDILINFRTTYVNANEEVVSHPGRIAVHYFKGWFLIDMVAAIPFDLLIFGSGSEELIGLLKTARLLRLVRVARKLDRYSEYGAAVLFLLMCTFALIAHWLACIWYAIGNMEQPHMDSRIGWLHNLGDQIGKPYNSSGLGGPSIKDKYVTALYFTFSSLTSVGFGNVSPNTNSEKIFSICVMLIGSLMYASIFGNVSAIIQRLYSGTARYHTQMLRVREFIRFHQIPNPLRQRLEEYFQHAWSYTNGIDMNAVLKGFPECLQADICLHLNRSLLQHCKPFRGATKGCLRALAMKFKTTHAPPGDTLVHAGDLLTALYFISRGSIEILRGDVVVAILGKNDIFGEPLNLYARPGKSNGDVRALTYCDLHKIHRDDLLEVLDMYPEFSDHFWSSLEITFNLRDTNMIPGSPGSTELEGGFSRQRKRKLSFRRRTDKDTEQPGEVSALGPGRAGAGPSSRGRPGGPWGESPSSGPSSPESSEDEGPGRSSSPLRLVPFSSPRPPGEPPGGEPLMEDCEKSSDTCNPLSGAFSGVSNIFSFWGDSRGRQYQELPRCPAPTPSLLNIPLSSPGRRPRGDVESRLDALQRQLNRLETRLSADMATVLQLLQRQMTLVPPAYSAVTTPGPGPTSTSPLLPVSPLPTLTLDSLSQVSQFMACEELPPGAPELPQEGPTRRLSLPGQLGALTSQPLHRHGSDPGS

Compound	hERG current change (%, negative = inhibition) at 10uM [%]
Clc1ccc(CNc2nnnn2-c2ccccc2)c(Cl)c1	20.7
CCc1ccccc1N(C)S(=O)(=O)c1ccc2[nH]cc(C(=O)O)c(=O)c2c1	10.1
Cc1ccc(C(=O)NNC(=O)C2CCCN(c3ncccn3)C2)cc1 (stereo not shown)	10.4
CCN(C(=O)CCS(=O)(=O)c1ccc2c(c1)oc(=O)n2C)c1ccc(OC)cc1	-6.48
CCOC(=O)C1=C(C)NC(=O)NC1c1ccccc1 (stereo not shown)	4.61
c1ccc(Cc2nnc(Sc3ccccc3)c3ccccc23)cc1	0.319
CC(Sc1n[nH]c(-c2ccccc2)n1)C(=O)c1c(N)n(C)c(=O)n(C)c1=O (stereo not shown)	-0.132
COCCNC(=O)c1ccc2c(c1)nc(C)n2-c1cccc(F)c1	-3.05
CCCNC(=O)CCC(NS(=O)(=O)c1ccc(C)cc1)C(=O)NCCC (stereo not shown)	-0.00172
COc1cccc(Nc2c([N+](=O)[O-])cncc2[N+](=O)[O-])c1	-2.64
O=C(COC(=O)c1ccncc1)Nc1cccc(Cl)c1	4.67
Cl.Cn1nnnc1SCCNCc1cccc2ccccc12	-10.4
COc1ccc(C2=NCC(CSc3nnc(-c4ccc5c(c4)OCO5)o3)S2)cc1 (stereo not shown)	4.27
COCCCn1cc(C(=O)c2cc(OC)ccc2OCC(=O)Nc2cc(C)on2)cc(C#N)c1=O	-53
O=C(Nn1cnnc1)C1Cc2ccccc2CN1S(=O)(=O)c1ccc(F)cc1 (stereo not shown)	-4.33
Cc1cc2ccccc2n1CCNCc1c(C(=O)N2CCOCC2)nc2ccccn12	-7.39
COC(=O)[C@@H]1C[C@H]1[C@@H](NC(=O)c1cc(C)on1)c1ccccc1	-1.58
O=C1CC(NCc2ccc3c(c2)OCO3)C(=O)N1CCc1ccccc1 (stereo not shown)	-15.7
Cc1ccc(S(=O)(=O)N2CCN(Cc3cc(C(C)(C)C)ccc3O)CC2)cc1	6.86
O=C(O)C1Cc2ccccc2CN1S(=O)(=O)/C=C/c1ccccc1 (stereo not shown)	22.5
COc1ccc(OC)c(NC(=O)CSc2nc(=O)n(CCN3CCOCC3)c3c2CCCC3)c1	-30.8
COC(=O)c1ccc(/C=N/NC(=O)C(=O)NCC2CCCO2)cc1 (stereo not shown)	13.4

Compound	hERG current change (%, negative = inhibition) at 10uM [%]
Cc1nc(C)c(C(=O)C2=C(O)C(=O)N(CCCn3ccnc3)C2c2ccc(Cl)cc2)s1 (stereo not shown)	3.48
COCCN1CN(S(=O)(=O)c2ccccc2)c2nc3ccccc3nc21	-16.7
CCN(CC)S(=O)(=O)c1ccc(NC2=NS(=O)(=O)c3ccccc32)cc1	-19.9
CN1CCN(CC(=O)N2c3ccc(S(=O)(=O)NCCNC(=O)OC(C)(C)C)cc3C(=O)Nc3cccnc32)CC1	4.31
Cc1cc(C)c(S(=O)(=O)c2ccccc2)c(OC(=O)c2c(Cl)cccc2Cl)n1	-4.78
COc1cccc(CNC(=O)CSCc2cnn(-c3ccccc3)c2-n2cccc2)c1OC	-36.6
CC1CCC2(CC1)NC(=O)N(CC(=O)NC(=O)Nc1ccc3c(c1)OCCO3)C2=O (stereo not shown)	-4.34
N#CCC(=O)N/N=C/c1cc(-c2ccccc2)n(-c2ccc(Cl)cc2)c1-c1ccccc1	13
CCc1c(O)nc(SCC(=O)Nc2ccccc2)n(C(C)CC)c1=O (stereo not shown)	7.15
O=C(CCc1nnc2n(Cc3ccccc3)c(=O)c3ccccc3n12)NCCN1CCOCC1	-1.06
O=C(COC(=O)COc1ccc(Cl)cc1Cl)Nc1cccnc1Cl	-3.03
FC(F)(F)c1ccnc(Sc2n[nH]c(C(F)(F)F)n2)c1	7.03
O=C(CC1C(=O)NCCN1Cc1c(F)cccc1Cl)NCCCOc1cccnc1 (stereo not shown)	16.6
O=C(CNc1n[nH]c(=O)[nH]c1=O)N/N=C/c1cccnc1	-8.53
Cc1ccc(-c2noc(CNCCCN(C)C)n2)cc1	-6.05
Cc1nc2cc(NC(=O)c3ccc(S(=O)(=O)N(C)c4ccccc4)cc3)ccc2o1	23
COc1cccc2c(=O)n(CC(=O)N3CCCc4ccccc43)ccc12	-0.155
COc1ccc(CNC(=O)c2ccc3c(=O)n(-c4ccccc4)c(=O)[nH]c3c2)cc1	12.8
Cc1cc(=O)[nH]c(SCC(=O)Nc2c(C)n(C)n(-c3ccccc3)c2=O)n1	3.71
Cc1cc(NC(=O)c2cccc(Br)c2)no1	19.1
Cc1ccc(NS(=O)(=O)c2ccc3c(c2)NC(=O)CCS3)cc1C	-3.53
CCCC1CC(C)(c2csc(Nc3ccc(OCC)cc3)n2)OC1=O (stereo not shown)	1.6

Compound	hERG current change (%, negative = inhibition) at 10uM [%]
Cc1ccccc1NC(=O)c1cccc2c1C(=O)N(C1CCCCC1)C2	1.52
O=C(CN1C(=O)NC2(CCCCCC2)C1=O)Nc1cccc(F)c1	-13.5
CCc1nc2ccc(C(=O)N3CCN(c4ccccc4F)CC3)cc2nc1CC	-19.5
CC(C)NC(=O)CSc1nc(Cc2ccccc2)nc2ccccc12	-5.74
Cc1nn(C)c(C)c1/C=C(/C(=O)C(C)(C)C)n1cncn1	28.5
CCOC(=O)C1=C(O)C(=O)N(c2ccc(S(N)(=O)=O)cc2)C1c1ccc([N+](=O)[O-])cc1 (stereo not shown)	-18.7
O=C(Nc1nc2ccccc2[nH]1)C1CCN(S(=O)(=O)c2cccs2)CC1	-0.923
COc1ccc(/C=N\NC(=O)COc2ccc(Cl)cc2Cl)c(C(=O)O)c1OC	-1.28
COc1cccc(NC(=O)CN(C)C(=O)c2cc(-c3ccc(F)cc3)nc3ccccc23)c1	-24.3
O=C(O)c1cccc(NCc2ccncc2)c1	14.6
COc1ccc(NC(=O)C(=O)c2cn(CC(=O)N3CCCC3)c3ccccc23)cc1OC	17.1
Nc1ccccc1S(=O)(=O)C(F)F	16.7
CN(CC(=O)Nc1ccc(Cl)cc1)C(=O)c1ccc(NS(=O)(=O)c2ccc3[nH]c(=O)[nH]c3c2)cc1	-0.286
COC(=O)c1cccc(C23CC4(C2)[C@H](CN(Cc2ccc(C(F)(F)F)cc2)[C@@H]4c2ccccc2)C3c2ccc(C(F)(F)F)cc2)c1 (stereo partly shown)	1.54
COc1ccc(N2CC(C(=O)Nc3ccc(F)cc3F)CC2=O)cc1 (stereo not shown)	-0.618
CCN(CC)CCN=Cc1c(O)n(Cc2ccccc2)c(=O)[nH]c1=O [26665338]	-31.5
CC(=O)c1ccc(N2CCN(C(=O)COc3ccc4c(c3)CCC4)CC2)cc1	-34
COc1ccc(OC)c(NC(=O)NCCc2cccc(Cl)c2)c1	10.1
CC1CCCCN1CC(=O)c1c[nH]c2ccccc12 (stereo not shown)	0.76
Nc1c(NC2CCCCC2)c2ccccc2oc1=O	-4.31
Cc1cccc(C(C)C)c1NC(=O)CN(C)Cc1cccc(F)c1	9.25
O=C(NCCOc1ccc(F)cc1)C1CCC(=O)N(CCCN2CCOCC2)C1 (stereo not shown)	21.2

Compound	hERG current change (%, negative = inhibition) at 10uM [%]
COc1ccc(CN2CC(=O)N(c3ccc(C)cc3C)C2=S)cc1OC	-8.05
N#Cc1ccc(Oc2cccnc2)cc1C#N	-13.1
NC(=O)c1c(NC(=O)c2cccnc2)sc2c1CCCCC2	9.56
Cc1cc(NC(=O)c2cccc(S(=O)(=O)N3CCOCC3)c2)c2ccccc2n1	-16.2
CC(C)CCn1c(=O)c2sccc2n2c(CCCC(=O)N3CCN(c4ccccn4)CC3)nnc12	-65
COC(=O)[C@H](CC(C)C)NC(=O)NC1CCCCC1C (stereo partly shown)	-3.37
Cc1ccccc1C(=O)NNc1ccc(-c2csnn2)cc1	-21.8
Br.CCCn1c(=N)n(CC(=O)c2ccc([N+](=O)[O-])cc2)c2ccccc21	-78.5
COc1ccc(C(=O)NCc2cn3ccsc3n2)cc1OC	6.91
O=C(Nc1cccc(C(F)(F)F)c1)c1sc(Cl)nc1C(F)(F)F	-2.01
CC(C)C(CCN1C(=O)c2ccccc2C1=O)c1ccco1 (stereo not shown)	-18.1
CS(=O)(=O)N(CC(=O)NCCSCc1ccccc1)c1ccccc1Cl	-13.4
O=C(COc1ccc(/C=N/NS(=O)(=O)c2ccccc2)cc1)NCc1ccccc1	11.7
CCc1nnc(NC(=O)c2ccc(OCc3c(C)noc3C)c(OC)c2)s1	14.8
CCc1ccc(C2=NN(CCC(=O)NCc3cccs3)C(=O)CC2)cc1	-30.9
O=C(CCn1cccn1)Nc1ccc2c(c1)OCO2	20.9
CN(C)Cc1ccccc1OC(=O)N(C)C.O=C(O)/C=C/C(=O)O	-6.2
CC(C)Oc1ccc(C(=O)NC(=S)N2CCOCC2)cc1	6.88
CC(NC(=S)Nc1ccccc1OC(F)F)C(C)(C)C (stereo not shown)	3.18
